Data on 31 molecules can be found in PMC9911399, “Two distinct binding modes provide the RNA-binding protein RbFox with extraordinary sequence specificity”.

To fix the notation:
T1: RBFOX1 RRM RbFoxmut (Fox-RRM*) (Homo sapiens, UniProt Q9NWB1 109-208, R118D;E147R;N151S;E152T)
T1 sequence: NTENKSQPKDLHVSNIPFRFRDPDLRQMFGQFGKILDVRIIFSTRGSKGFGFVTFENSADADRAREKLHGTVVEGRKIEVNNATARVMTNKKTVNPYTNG

B1: GACUUCU (DNA:RNA)
RNA: GGGAGACCGGAAUUCAGAUUGUCCGACUUCUUUAAAUCCCGUCGUAGCCACCA
DNA 1: CAATCTGAATTCCGGTCTCCC
DNA 2: TGGTGGCTACGACGGGATT
B2: GCUGACA (DNA:RNA)
RNA: B1 RNA with A26C, C27U, U28G, U29A, U31A
DNA 1: CAATCTGAATTCCGGTCTCCC
DNA 2: TGGTGGCTACGACGGGATT
B3: ACCCAGC (DNA:RNA)
RNA: B1 RNA with G25A, A26C, U28C, U29A, C30G, U31C
DNA 1: CAATCTGAATTCCGGTCTCCC
DNA 2: TGGTGGCTACGACGGGATT
B4: GACGCUC (DNA:RNA)
RNA: B1 RNA with U28G, U29C, C30U, U31C
DNA 1: CAATCTGAATTCCGGTCTCCC
DNA 2: TGGTGGCTACGACGGGATT
B5: UGGGAGG (DNA:RNA)
RNA: GGGAGACCGGAAUUCAGAUUGUCCUGGGAGGUUAAAUCCCGUCGUAGCCACCA
DNA 1: CAATCTGAATTCCGGTCTCCC
DNA 2: TGGTGGCTACGACGGGATT
B6: AUUAUCG (DNA:RNA)
RNA: B1 RNA with G25A, A26U, C27U, U28A, U31G
DNA 1: CAATCTGAATTCCGGTCTCCC
DNA 2: TGGTGGCTACGACGGGATT
B7: AAACCUU (DNA:RNA)
RNA: B1 RNA with G25A, C27A, U28C, U29C, C30U
DNA 1: CAATCTGAATTCCGGTCTCCC
DNA 2: TGGTGGCTACGACGGGATT
B8: CCAGCGG (DNA:RNA)
RNA: B5 RNA with U25C, G26C, G27A, A29C
DNA 1: CAATCTGAATTCCGGTCTCCC
DNA 2: TGGTGGCTACGACGGGATT
B9: CAGGGUC (DNA:RNA)
RNA: B5 RNA with U25C, G26A, A29G, G30U, G31C
DNA 1: CAATCTGAATTCCGGTCTCCC
DNA 2: TGGTGGCTACGACGGGATT
B10: CGUCCGU (DNA:RNA)
RNA: B5 RNA with U25C, G27U, G28C, A29C, G31U
DNA 1: CAATCTGAATTCCGGTCTCCC
DNA 2: TGGTGGCTACGACGGGATT
B11: GAAUGGA (DNA:RNA)
RNA: B1 RNA with C27A, U29G, C30G, U31A
DNA 1: CAATCTGAATTCCGGTCTCCC
DNA 2: TGGTGGCTACGACGGGATT
B12: UGGUUGU (DNA:RNA)
RNA: B5 RNA with G28U, A29U, G31U
DNA 1: CAATCTGAATTCCGGTCTCCC
DNA 2: TGGTGGCTACGACGGGATT
B13: UCUUAUG (DNA:RNA)
RNA: B5 RNA with G26C, G27U, G28U, G30U
DNA 1: CAATCTGAATTCCGGTCTCCC
DNA 2: TGGTGGCTACGACGGGATT
B14: GACUUGA (DNA:RNA)
RNA: B1 RNA with C30G, U31A
DNA 1: CAATCTGAATTCCGGTCTCCC
DNA 2: TGGTGGCTACGACGGGATT
B15: UGACACA (DNA:RNA)
RNA: B5 RNA with G27A, G28C, G30C, G31A
DNA 1: CAATCTGAATTCCGGTCTCCC
DNA 2: TGGTGGCTACGACGGGATT
B16: GAAGCCU (DNA:RNA)
RNA: B1 RNA with C27A, U28G, U29C
DNA 1: CAATCTGAATTCCGGTCTCCC
DNA 2: TGGTGGCTACGACGGGATT
B17: UCGCCCA (DNA:RNA)
RNA: B5 RNA with G26C, G28C, A29C, G30C, G31A
DNA 1: CAATCTGAATTCCGGTCTCCC
DNA 2: TGGTGGCTACGACGGGATT
B18: GCGCUGC (DNA:RNA)
RNA: B1 RNA with A26C, C27G, U28C, C30G, U31C
DNA 1: CAATCTGAATTCCGGTCTCCC
DNA 2: TGGTGGCTACGACGGGATT
B19: CUUUAGC (DNA:RNA)
RNA: B5 RNA with U25C, G26U, G27U, G28U, G31C
DNA 1: CAATCTGAATTCCGGTCTCCC
DNA 2: TGGTGGCTACGACGGGATT
B20: GACGAAU (DNA:RNA)
RNA: B1 RNA with U28G, U29A, C30A
DNA 1: CAATCTGAATTCCGGTCTCCC
DNA 2: TGGTGGCTACGACGGGATT
B21: GCUACGA (DNA:RNA)
RNA: B1 RNA with A26C, C27U, U28A, U29C, C30G, U31A
DNA 1: CAATCTGAATTCCGGTCTCCC
DNA 2: TGGTGGCTACGACGGGATT
B22: CAAACUC (DNA:RNA)
RNA: B1 RNA with G25C, C27A, U28A, U29C, C30U, U31C
DNA 1: CAATCTGAATTCCGGTCTCCC
DNA 2: TGGTGGCTACGACGGGATT
B23: CCCCCCU (DNA:RNA)
RNA: B1 RNA with G25C, A26C, U28C, U29C
DNA 1: CAATCTGAATTCCGGTCTCCC
DNA 2: TGGTGGCTACGACGGGATT
B24: CAUACAA (DNA:RNA)
RNA: B1 RNA with G25C, C27U, U28A, U29C, C30A, U31A
DNA 1: CAATCTGAATTCCGGTCTCCC
DNA 2: TGGTGGCTACGACGGGATT
B25: ACUUAAA (DNA:RNA)
RNA: B1 RNA with G25A, A26C, C27U, U29A, C30A, U31A
DNA 1: CAATCTGAATTCCGGTCTCCC
DNA 2: TGGTGGCTACGACGGGATT
B26: CUGCUUC (DNA:RNA)
RNA: B1 RNA with G25C, A26U, C27G, U28C, C30U, U31C
DNA 1: CAATCTGAATTCCGGTCTCCC
DNA 2: TGGTGGCTACGACGGGATT
B27: UUCACUC (DNA:RNA)
RNA: B1 RNA with G25U, A26U, U28A, U29C, C30U, U31C
DNA 1: CAATCTGAATTCCGGTCTCCC
DNA 2: TGGTGGCTACGACGGGATT
B28: CGAGGCG (DNA:RNA)
RNA: B5 RNA with U25C, G27A, A29G, G30C
DNA 1: CAATCTGAATTCCGGTCTCCC
DNA 2: TGGTGGCTACGACGGGATT
B29: AUCAUUU (DNA:RNA)
RNA: B1 RNA with G25A, A26U, U28A, C30U
DNA 1: CAATCTGAATTCCGGTCTCCC
DNA 2: TGGTGGCTACGACGGGATT
B30: AGGCGUG (DNA:RNA)
RNA: B5 RNA with U25A, G28C, A29G, G30U
DNA 1: CAATCTGAATTCCGGTCTCCC
DNA 2: TGGTGGCTACGACGGGATT
B31: GAAAUCU (DNA:RNA)
RNA: B1 RNA with C27A, U28A
DNA 1: CAATCTGAATTCCGGTCTCCC
DNA 2: TGGTGGCTACGACGGGATT

Changes are numbered by the printed parent chain; changes in the protein carry UniProt numbers. The list shows a part of the results.

The assay deals with T1, RBFOX1 RRM RbFoxmut (Fox-RRM*). The assay can be described thus: EMSA; HiTS-Eq, 1 nM pool, 10 min; buffer printed only for the single-RNA assays: 10 mM Tris pH 7.5, 150 mM NaCl, 3.4 mM EDTA, 0.001% NP-40, 30 C. The settings on record: tags: His6 N-terminal (pET28a); label: 5' 32P. The method, boiled down:
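A pool of RNA with 7 randomized nucleotides, 5′-radiolabelled and with DNA-annealed flanks, was equilibrated at 1 nM for 10 min in 50 µL with purified RbFox RRM, wild type or mutant, across increasing protein concentrations. Free RNA was separated by 8% native PAGE, excised, reverse-transcribed, barcoded by PCR and sequenced. Relative association constants were obtained from read-count changes of each RNA species versus the control reaction and normalised to the cognate motif.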
B1: the binding signal was 0.0606 KA relative to UGCAUGU. In the case of B2, the binding signal is 0.071 KA relative to UGCAUGU. As for B3, the figure is 0.107 KA relative to UGCAUGU; as for B4, 0.0618 KA relative to UGCAUGU; as for B5, 0.106 KA relative to UGCAUGU. As for B6, the figure is 0.129 KA relative to UGCAUGU. As for B7, the figure is 0.0712 KA relative to UGCAUGU; as for B8, 0.0846 KA relative to UGCAUGU; as for B9, 0.146 KA relative to UGCAUGU. As to B10, the binding signal was 0.119 KA relative to UGCAUGU. As for B11, the figure is 0.165 KA relative to UGCAUGU; as for B12, 0.396 KA relative to UGCAUGU. As for B13, the figure is 0.139 KA relative to UGCAUGU.

As to B14, the binding signal is 0.151 KA relative to UGCAUGU. As for B15, the figure is 0.0934 KA relative to UGCAUGU; as for B16, 0.0715 KA relative to UGCAUGU; as for B17, 0.071 KA relative to UGCAUGU. As for B18, the figure is 0.086 KA relative to UGCAUGU; as for B19, 0.129 KA relative to UGCAUGU. As for B20, the figure is 0.0973 KA relative to UGCAUGU; as for B21, 0.115 KA relative to UGCAUGU. B22: the binding signal was 0.0603 KA relative to UGCAUGU. In the case of B23, the binding signal is 0.0549 KA relative to UGCAUGU. As for B24, the figure is 0.0704 KA relative to UGCAUGU; as for B25, 0.115 KA relative to UGCAUGU.

Turning to B26, the binding signal is 0.128 KA relative to UGCAUGU. As for B27, the figure is 0.0685 KA relative to UGCAUGU; as for B28, 0.128 KA relative to UGCAUGU; as for B29, 0.113 KA relative to UGCAUGU. As for B30, the figure is 0.224 KA relative to UGCAUGU; as for B31, 0.0496 KA relative to UGCAUGU.
